Among the data in the supplement of paper PMC4604168 (melanoma cell lines) are cell count values, retold here.

Some of the results follow. Most values come without repeats; read them as rough.
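Further: cell number obtained by counting DAPI-stained nuclei in high-throughput microscope images with image analysis software, screen run in 1,536-well plates.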

This test has as its system MeWo. The experiment in a line: cell count relative to DMSO control; melanoma cells; higher = more viable cells. The note with it: library dose: low library concentration; 72 h.
On to `CC(=O)c1c(C)c2cnc(Nc3ccc(N4CCNCC4)cn3)nc2n(C2CCCC2)c1=O` [palbociclib] + C=CCn1c(=O)c2cnc(Nc3ccc(N4CCN(C)CC4)cc3)nc2n1-c1cccc(C(C)(C)O)n1 [MK1775] (first compound 0.04 µM, partner dose 0.02 µM), for which the cell count amounted to 84.1%.
In the case of `CC(=O)c1c(C)c2cnc(Nc3ccc(N4CCNCC4)cn3)nc2n(C2CCCC2)c1=O` [palbociclib] + Oc1cc(-c2nc(-c3ccccc3)[nH]c2-c2ccncc2)ccc1Cl [L779450] (first compound 0.04 µM, partner dose 0.2 µM) it was 86.5%; in that of `Nc1ncn([C@H]2C[C@H](O)[C@@H](CO)O2)c(=O)n1` [decitabine] + c1cc(-c2cnn3cc(-c4ccc(OCCN5CCCCC5)cc4)cnc23)ccn1 [Dorsomorphin] (first compound 0.1 µM, partner dose 0.4 µM), 101%; in that of `Nc1ncn([C@H]2C[C@H](O)[C@@H](CO)O2)c(=O)n1` [decitabine] + O=C(Nc1ccccc1)c1cc([N+](=O)[O-])ccc1Cl [GW9662] (first compound 0.1 µM, partner dose 2 µM), 94.5%.
The compound `Nc1ncn([C@H]2C[C@H](O)[C@@H](CO)O2)c(=O)n1` [decitabine] + O=C(Nc1cccc(Cl)c1)Nc1ncc(CCNc2ncnc3ccsc23)s1 [SNS314] (first compound 0.1 µM, partner dose 0.0008 µM) returned a cell count of 90.3%.
For `CC(=O)O[C@@]12CO[C@@H]1C[C@H](O)[C@@]1(C)C(=O)[C@H](O)C3=C(C)[C@@H](OC(=O)[C@H](O)[C@@H](NC(=O)OC(C)(C)C)c4ccccc4)C[C@@](O)([C@@H](OC(=O)c4ccccc4)[C@H]21)C3(C)C` [Docetaxel] + Cn1cncc1[C@@](N)(c1ccc(Cl)cc1)c1ccc2c(c1)c(-c1cccc(Cl)c1)cc(=O)n2C [tipifarnib] (first compound 0.0001 µM, partner dose 0.01 µM), the cell count came to 40.8%.
Under `Nc1nc(F)nc2c1ncn2[C@@H]1O[C@H](CO)[C@@H](O)[C@@H]1O` [fludarabine] + CC1(C)NC(=O)N(c2ccc([N+](=O)[O-])c(C(F)(F)F)c2)C1=O [nilutamide] (first compound 0.2 µM, partner dose 1 µM) stands 36.1%.
`Nc1ncn([C@H]2C[C@H](O)[C@@H](CO)O2)c(=O)n1` [decitabine] + O=C(CCCCCCC(=O)Nc1ccccc1)NO [vorinostat] (first compound 0.1 µM, partner dose 0.08 µM) showed a cell count of 99.4%.
In turn, `CC(=O)c1c(C)c2cnc(Nc3ccc(N4CCNCC4)cn3)nc2n(C2CCCC2)c1=O` [palbociclib] + COc1ccc(-c2ccc3c(N4CCOCC4)nc(N4C[C@@H](C)O[C@@H](C)C4)nc3n2)cc1CO [KU0063794] (first compound 0.04 µM, partner dose 0.02 µM) returned a cell count of 69.4%.
In the case of `Nc1nc(F)nc2c1ncn2[C@@H]1O[C@H](CO)[C@@H](O)[C@@H]1O` [fludarabine] + O=C(O)C(=O)Nc1sc2c(c1C(=O)O)CCNC2 [TCS401] (first compound 0.2 µM, partner dose 1.66667 µM), the cell count is 46.5%.
Under `Nc1ncn([C@H]2C[C@H](O)[C@@H](CO)O2)c(=O)n1` [decitabine] + COc1cc(Nc2ncc(F)c(Nc3ccc4c(n3)NC(=O)C(C)(C)O4)n2)cc(OC)c1OC [Tamatinib] (first compound 0.1 µM, partner dose 0.4 µM) stands 93.7%; under `Nc1nc(F)nc2c1ncn2[C@@H]1O[C@H](CO)[C@@H](O)[C@@H]1O` [fludarabine] + CCc1ccc(CCOc2ccc(CC3SC(=O)NC3=O)cc2)nc1 [pioglitazone] (first compound 0.2 µM, partner dose 2 µM), 37.4%.
For the compound `Nc1ccn([C@@H]2O[C@H](CO)[C@@H](O)C2(F)F)c(=O)n1` [gemcitabine] + O=C(Nc1cccc(Cl)c1)Nc1ncc(CCNc2ncnc3ccsc23)s1 [SNS314] (first compound 0.0004 µM, partner dose 0.0008 µM), the cell count turned out to be 91.1%.
The compound `Nc1ccn([C@@H]2O[C@H](CO)[C@@H](O)C2(F)F)c(=O)n1` [gemcitabine] + CN(C)S(=O)(=O)c1ccc2c(c1)/C(=C/c1cc3c([nH]1)CCCC3)C(=O)N2 [SU6656] (first compound 0.0004 µM, partner dose 0.4 µM) had a cell count of 88.1%.
`Nc1ncn([C@H]2C[C@H](O)[C@@H](CO)O2)c(=O)n1` [decitabine] + COc1cc(N2CCC(N3CCN(C)CC3)CC2)ccc1Nc1ncc(Cl)c(Nc2ccccc2S(=O)(=O)C(C)C)n1 [NVP-TAE684] (first compound 0.1 µM, partner dose 0.08 µM) gave a cell count of 90.2%.
Compound `CC(=O)O[C@@]12CO[C@@H]1C[C@H](O)[C@@]1(C)C(=O)[C@H](O)C3=C(C)[C@@H](OC(=O)[C@H](O)[C@@H](NC(=O)OC(C)(C)C)c4ccccc4)C[C@@](O)([C@@H](OC(=O)c4ccccc4)[C@H]21)C3(C)C` [Docetaxel] + CCCCCCCCCCCC1=C(O)C(=O)C=C(O)C1=O [Embelin] (first compound 0.0001 µM, partner dose 1.2 µM) yielded a cell count of 43.9%.
For `CC(=O)c1c(C)c2cnc(Nc3ccc(N4CCNCC4)cn3)nc2n(C2CCCC2)c1=O` [palbociclib] + O=C(Nc1cccc(Cl)c1)Nc1ncc(CCNc2ncnc3ccsc23)s1 [SNS314] (first compound 0.04 µM, partner dose 0.0008 µM), the cell count came out at 77.6%.
Consider `CC(=O)O[C@@]12CO[C@@H]1C[C@H](O)[C@@]1(C)C(=O)[C@H](O)C3=C(C)[C@@H](OC(=O)[C@H](O)[C@@H](NC(=O)OC(C)(C)C)c4ccccc4)C[C@@](O)([C@@H](OC(=O)c4ccccc4)[C@H]21)C3(C)C` [Docetaxel] + N#Cc1c(O)c2c(-c3ccc(-c4ccccc4O)cc3)csc2[nH]c1=O [A769662] (first compound 0.0001 µM, partner dose 2 µM), for which the cell count was 39.8%.
In turn, `Nc1ccn([C@@H]2O[C@H](CO)[C@@H](O)C2(F)F)c(=O)n1` [gemcitabine] + CC(C)CCN1c2nc(Nc3cc(F)c(O)c(F)c3)ncc2N(C)C(=O)C1C [BID1870] (first compound 0.0004 µM, partner dose 0.2 µM) returned a cell count of 100%.
For `Nc1nc(F)nc2c1ncn2[C@@H]1O[C@H](CO)[C@@H](O)[C@@H]1O` [fludarabine] + N#Cc1c(O)c2c(-c3ccc(-c4ccccc4O)cc3)csc2[nH]c1=O [A769662] (first compound 0.2 µM, partner dose 2 µM), the cell count amounted to 33.8%.
In turn, `Nc1ccn([C@@H]2O[C@H](CO)[C@@H](O)C2(F)F)c(=O)n1` [gemcitabine] + Cc1cc([N+](=O)[O-])ccc1NS(=O)(=O)c1cc(Cl)ccc1Cl [FH535] (first compound 0.0004 µM, partner dose 1 µM) had a cell count of 96.3%.
Regarding `Nc1ccn([C@@H]2O[C@H](CO)[C@@H](O)C2(F)F)c(=O)n1` [gemcitabine] + Cc1cc(N2CCOCC2)cc2[nH]c(-c3c(NC[C@@H](O)c4cccc(Cl)c4)cc[nH]c3=O)nc12 [BMS536924] (first compound 0.0004 µM, partner dose 0.2 µM), the cell count is 96.9%.
Compound `Nc1nc(F)nc2c1ncn2[C@@H]1O[C@H](CO)[C@@H](O)[C@@H]1O` [fludarabine] + CO[C@@H]1[C@H](N(C)C(=O)c2ccccc2)C[C@H]2O[C@]1(C)n1c3ccccc3c3c4c(c5c6ccccc6n2c5c31)C(=O)NC4 [Midostaurin] (first compound 0.2 µM, partner dose 0.08 µM) showed a cell count of 21.7%.
Under `Nc1ncn([C@H]2C[C@H](O)[C@@H](CO)O2)c(=O)n1` [decitabine] + O=C1NC(=O)/C(=C/c2ccc(-c3ccc(F)cc3O)o2)S1 [AS252424] (first compound 0.1 µM, partner dose 1 µM) stands 88.7%; under `Nc1ncn([C@H]2C[C@H](O)[C@@H](CO)O2)c(=O)n1` [decitabine] + CC(C)(C)c1cnc(CSc2cnc(NC(=O)C3CCNCC3)s2)o1 [SNS-032] (first compound 0.1 µM, partner dose 0.01 µM), 91.7%; under `Nc1ccn([C@@H]2O[C@H](CO)[C@@H](O)C2(F)F)c(=O)n1` [gemcitabine] + COc1ccc2c(c1)CCC1C2CCC2(C)C(NCCCCCCN3C(=O)C=CC3=O)CCC12 [U73122] (first compound 0.0004 µM, partner dose 0.4 µM), 101%.
`Nc1ncn([C@H]2C[C@H](O)[C@@H](CO)O2)c(=O)n1` [decitabine] + COc1cc2c(Oc3ccc4[nH]c(C)cc4c3F)ncnc2cc1OCCCN1CCCC1 [cediranib] (first compound 0.1 µM, partner dose 0.4 µM) came in with a cell count of 105%.
In the case of `Nc1ncn([C@H]2C[C@H](O)[C@@H](CO)O2)c(=O)n1` [decitabine] + CN(C)S(=O)(=O)c1ccc2c(c1)/C(=C/c1cc3c([nH]1)CCCC3)C(=O)N2 [SU6656] (first compound 0.1 µM, partner dose 0.4 µM), the cell count was determined as 91.1%.
`CC(=O)O[C@@]12CO[C@@H]1C[C@H](O)[C@@]1(C)C(=O)[C@H](O)C3=C(C)[C@@H](OC(=O)[C@H](O)[C@@H](NC(=O)OC(C)(C)C)c4ccccc4)C[C@@](O)([C@@H](OC(=O)c4ccccc4)[C@H]21)C3(C)C` [Docetaxel] + COc1cc(N2CCC(N3CCN(C)CC3)CC2)ccc1Nc1ncc(Cl)c(Nc2ccccc2S(=O)(=O)C(C)C)n1 [NVP-TAE684] (first compound 0.0001 µM, partner dose 0.08 µM) displayed a cell count of 40.6%.
